T1: RBFOX1 RRM (Homo sapiens, UniProt Q9NWB1 109-208)
T1 sequence: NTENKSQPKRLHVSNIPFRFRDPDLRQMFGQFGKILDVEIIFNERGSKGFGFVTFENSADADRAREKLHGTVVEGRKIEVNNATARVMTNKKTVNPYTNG

B1: GUUUAAU (DNA:RNA)
RNA: GGGAGACCGGAAUUCAGAUUGUCCGUUUAAUUUAAAUCCCGUCGUAGCCACCA
DNA 1: CAATCTGAATTCCGGTCTCCC
DNA 2: TGGTGGCTACGACGGGATT
B2: AGUAUGA (DNA:RNA)
RNA: B1 RNA with G25A, U26G, U28A, A29U, A30G, U31A
DNA 1: CAATCTGAATTCCGGTCTCCC
DNA 2: TGGTGGCTACGACGGGATT
B3: GUUCGAU (DNA:RNA)
RNA: B1 RNA with U28C, A29G
DNA 1: CAATCTGAATTCCGGTCTCCC
DNA 2: TGGTGGCTACGACGGGATT
B4: UGAUGCC (DNA:RNA)
RNA: B1 RNA with G25U, U26G, U27A, A29G, A30C, U31C
DNA 1: CAATCTGAATTCCGGTCTCCC
DNA 2: TGGTGGCTACGACGGGATT
B5: CGUCCUA (DNA:RNA)
RNA: B1 RNA with G25C, U26G, U28C, A29C, A30U, U31A
DNA 1: CAATCTGAATTCCGGTCTCCC
DNA 2: TGGTGGCTACGACGGGATT
B6: CGUCGGA (DNA:RNA)
RNA: B1 RNA with G25C, U26G, U28C, A29G, A30G, U31A
DNA 1: CAATCTGAATTCCGGTCTCCC
DNA 2: TGGTGGCTACGACGGGATT
B7: GAUCGAU (DNA:RNA)
RNA: B1 RNA with U26A, U28C, A29G
DNA 1: CAATCTGAATTCCGGTCTCCC
DNA 2: TGGTGGCTACGACGGGATT
B8: AUGCGGU (DNA:RNA)
RNA: B1 RNA with G25A, U27G, U28C, A29G, A30G
DNA 1: CAATCTGAATTCCGGTCTCCC
DNA 2: TGGTGGCTACGACGGGATT
B9: UUACACA (DNA:RNA)
RNA: B1 RNA with G25U, U27A, U28C, A30C, U31A
DNA 1: CAATCTGAATTCCGGTCTCCC
DNA 2: TGGTGGCTACGACGGGATT
B10: CAUCUGU (DNA:RNA)
RNA: B1 RNA with G25C, U26A, U28C, A29U, A30G
DNA 1: CAATCTGAATTCCGGTCTCCC
DNA 2: TGGTGGCTACGACGGGATT
B11: CUUGUAU (DNA:RNA)
RNA: B1 RNA with G25C, U28G, A29U
DNA 1: CAATCTGAATTCCGGTCTCCC
DNA 2: TGGTGGCTACGACGGGATT
B12: GAGUCAG (DNA:RNA)
RNA: B1 RNA with U26A, U27G, A29C, U31G
DNA 1: CAATCTGAATTCCGGTCTCCC
DNA 2: TGGTGGCTACGACGGGATT
B13: GUGGGAC (DNA:RNA)
RNA: B1 RNA with U27G, U28G, A29G, U31C
DNA 1: CAATCTGAATTCCGGTCTCCC
DNA 2: TGGTGGCTACGACGGGATT
B14: UGCAUCA (DNA:RNA)
RNA: GGGAGACCGGAAUUCAGAUUGUCCUGCAUCAUUAAAUCCCGUCGUAGCCACCA
DNA 1: CAATCTGAATTCCGGTCTCCC
DNA 2: TGGTGGCTACGACGGGATT
B15: CGUUAGU (DNA:RNA)
RNA: B1 RNA with G25C, U26G, A30G
DNA 1: CAATCTGAATTCCGGTCTCCC
DNA 2: TGGTGGCTACGACGGGATT
B16: UGCAACU (DNA:RNA)
RNA: B14 RNA with U29A, A31U
DNA 1: CAATCTGAATTCCGGTCTCCC
DNA 2: TGGTGGCTACGACGGGATT
B17: CGCUGCU (DNA:RNA)
RNA: B14 RNA with U25C, A28U, U29G, A31U
DNA 1: CAATCTGAATTCCGGTCTCCC
DNA 2: TGGTGGCTACGACGGGATT
B18: AUCAGAU (DNA:RNA)
RNA: B1 RNA with G25A, U27C, U28A, A29G
DNA 1: CAATCTGAATTCCGGTCTCCC
DNA 2: TGGTGGCTACGACGGGATT
B19: CUCGACG (DNA:RNA)
RNA: B1 RNA with G25C, U27C, U28G, A30C, U31G
DNA 1: CAATCTGAATTCCGGTCTCCC
DNA 2: TGGTGGCTACGACGGGATT
B20: UGACAAU (DNA:RNA)
RNA: B1 RNA with G25U, U26G, U27A, U28C
DNA 1: CAATCTGAATTCCGGTCTCCC
DNA 2: TGGTGGCTACGACGGGATT

Positions count from the first letter of the chain named. The list shows a part of the results.

In PMC9911399, “Two distinct binding modes provide the RNA-binding protein RbFox with extraordinary sequence specificity” one finds binding signal data, which are given here for 20 molecules.

In this test the target is T1, RBFOX1 RRM. The test is described as follows: EMSA; HiTS-Eq, 1 nM pool, 10 min; buffer printed only for the single-RNA assays: 10 mM Tris pH 7.5, 150 mM NaCl, 3.4 mM EDTA, 0.001% NP-40, 30 C. Particulars: tags: His6 N-terminal (pET28a); label: 5' 32P. The method in brief: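 Relative association constants, normalised to the cognate motif, were derived by comparing read counts of each RNA species with those of the control reaction. The RNA sequenced was the free fraction, separated by 8% native PAGE after a 10 min equilibration in 50 µL of 1 nM 5′-radiolabelled RNA (7 randomized nucleotides) with increasing concentrations of purified wild-type or mutant RbFox RRM.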
On to B1, for which the binding signal was 0.00608 KA relative to UGCAUGU.
For the molecule B2, the binding signal was 0.0137 KA relative to UGCAUGU.
For B3 the value was 0.0194 KA relative to UGCAUGU.
For B4 the value was 0.0121 KA relative to UGCAUGU.
For B5 the value was 0.00311 KA relative to UGCAUGU.
In the case of B6, the binding signal is 0.00462 KA relative to UGCAUGU.
With B7 the figure was 0.0183 KA relative to UGCAUGU; with B8, 0.012 KA relative to UGCAUGU; with B9, 0.00244 KA relative to UGCAUGU.
For B10, the binding signal is 0.00671 KA relative to UGCAUGU.
With B11 the figure was 0.0109 KA relative to UGCAUGU; with B12, 0.0127 KA relative to UGCAUGU.
For B13 the value was 0.0114 KA relative to UGCAUGU; for B14, 0.0118 KA relative to UGCAUGU; for B15, 0.00958 KA relative to UGCAUGU.
With B16 the figure was 0.0132 KA relative to UGCAUGU.
For the molecule B17, the binding signal is 0.0168 KA relative to UGCAUGU.
With B18 the figure was 0.00568 KA relative to UGCAUGU; with B19, 0.00717 KA relative to UGCAUGU; with B20, 0.0123 KA relative to UGCAUGU.
